Measurements taken from PubChem BioAssay AID504339 (National Center for Advancing Translational Sciences (NCATS), 2011).
In all, about 390,000 compounds went through this assay and about 17,000 (4.4%) were called active. Inconclusive results, whose numbers are uncertain, are shown with a selection of clear calls. Calls come from the whole dose curve; as a rule, active = well fitted inhibition curve with a large enough effect; inconclusive = small, poorly fitted or top-dose-only effect; inactive = no such curve, though single readings can be large or run the other way. Potencies beside an inconclusive call are fits to weak or partial responses and may not hold up.

What follows are compounds tested against Lysine-specific demethylase 4A (Homo sapiens) (UniProt O75164) (assay: qHTS Assay for Inhibitors of JMJD2A-Tudor Domain). Settings: AlphaScreen JMJD2A-Tudor / H3K4me3 peptide binding; activity change, negative = inhibition: at 114 µM (top of the series).
Chain of UniProt O75164 (O75164 whole entry, looked up, the tested form may be a part): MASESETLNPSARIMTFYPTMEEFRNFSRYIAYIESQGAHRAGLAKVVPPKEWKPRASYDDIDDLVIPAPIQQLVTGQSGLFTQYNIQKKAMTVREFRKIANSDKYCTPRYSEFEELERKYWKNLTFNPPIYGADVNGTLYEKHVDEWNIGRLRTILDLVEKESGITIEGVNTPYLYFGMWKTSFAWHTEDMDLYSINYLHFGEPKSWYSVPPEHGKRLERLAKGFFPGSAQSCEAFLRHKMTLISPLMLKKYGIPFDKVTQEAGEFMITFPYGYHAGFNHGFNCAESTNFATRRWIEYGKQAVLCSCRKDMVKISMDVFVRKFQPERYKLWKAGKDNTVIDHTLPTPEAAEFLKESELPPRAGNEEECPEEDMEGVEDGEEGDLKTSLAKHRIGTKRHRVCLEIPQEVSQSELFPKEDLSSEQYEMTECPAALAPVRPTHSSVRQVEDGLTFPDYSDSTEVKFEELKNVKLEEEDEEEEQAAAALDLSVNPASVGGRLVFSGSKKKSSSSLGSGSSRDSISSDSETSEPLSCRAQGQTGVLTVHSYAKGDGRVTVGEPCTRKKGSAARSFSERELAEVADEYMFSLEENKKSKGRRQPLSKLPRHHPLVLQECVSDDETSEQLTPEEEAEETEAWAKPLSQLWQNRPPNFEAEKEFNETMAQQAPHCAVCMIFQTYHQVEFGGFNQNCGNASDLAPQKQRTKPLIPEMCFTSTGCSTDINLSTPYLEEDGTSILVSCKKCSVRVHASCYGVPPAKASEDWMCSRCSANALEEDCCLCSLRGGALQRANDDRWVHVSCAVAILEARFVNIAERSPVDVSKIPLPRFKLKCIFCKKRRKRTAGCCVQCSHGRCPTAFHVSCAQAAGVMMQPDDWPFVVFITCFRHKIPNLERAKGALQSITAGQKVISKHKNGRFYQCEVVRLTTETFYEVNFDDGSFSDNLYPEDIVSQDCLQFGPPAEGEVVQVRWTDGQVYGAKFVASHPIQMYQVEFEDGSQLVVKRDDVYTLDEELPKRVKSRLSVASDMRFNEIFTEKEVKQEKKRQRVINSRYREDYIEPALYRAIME
% is set by controls: 0 for no effect and ±100 for the full control effect; potency is the fitted concentration of half-maximal effect; tags give direction and shape of the fitted curve.
Note: nearly all actives have a fitted effect of over 50% in size.

SMILES | Potency | activity change, negative = inhibition
COc1ccc(C(CNC(=O)c2cc(S(=O)(=O)N3CCCCC3)ccc2C)N2CCCC2)cc1 (stereo unspecified) | inactive | 
CCOC(=O)c1ccc(N=c2scc(C)n2CC)cc1 | active: 39.8 µM | 
NC(=S)N/N=C/c1ccc(-c2cc(Cl)ccc2Cl)o1 | inconclusive: 50.1 µM [inhibitor, partial curve] | 
CCN(CC)c1ccc(C(=O)Nc2ccccc2)cc1[N+](=O)[O-] | inconclusive: 11.2 µM [inhibitor, full curve] | 
COC(=O)CCC(=O)OC1(C)C(=O)C=C2C=C(c3ccsc3)OC=C2C1=O (stereo unspecified) | active: 50.1 µM | 
Cc1ccc(NC(=O)CC(=O)Nc2ccc(C)c(C)c2)cc1C | inconclusive: 17.8 µM [inhibitor, full curve] | 
O=[N+]([O-])c1cccc(S(=O)(=O)Nc2nc3ccccc3nc2Nc2cccc(S(=O)(=O)N3CCCCC3)c2)c1 | active: 44.7 µM | 
CCCCNC(=O)c1cc(-c2cccnc2)nc2ccc(S(=O)(=O)NCCCC)cc12 | inactive | 
C=CCCCN(Cc1ccccc1)S(=O)(=O)c1ccccc1Br | inactive | 
COCc1nnc(NC(=O)CS(=O)(=O)c2ccc(C)cc2)s1 | inconclusive: 35.5 µM [inhibitor, single point] | 
COCCCN=C1NN=C(c2cc(C)n(Cc3ccccc3Cl)c2C)CS1 | inconclusive: 89.1 µM [inhibitor, partial curve] | 
CC1(CC(=O)N/N=C/c2cc(Br)c(O)cc2O)OCCO1 | inactive | 
Cc1cc(O)ccc1N=Cc1c(C(F)(F)F)[nH][nH]c1=O | inconclusive: 56.2 µM [inhibitor, partial curve, poor fit] | 
CCn1ncc(/C=N\NC(=O)c2ccc3c(c2)c(C)c(C)n3Cc2ccccc2)c1C | inconclusive: 56.2 µM [inhibitor, partial curve] | 
C(=N\N=C\c1ccccn1)/c1ccccn1 | inconclusive: 35.5 µM [inhibitor, full curve] | 
Cc1ccc(/C=N/NC(=O)CSc2nnc(-c3ccc(Cl)cc3)n2-c2ccc(Cl)cc2)o1 | inactive | 
CCc1ccc(NC(=O)c2cccc(N3CCCS3(=O)=O)c2)cc1 | inactive | 
COc1cc(NS(=O)(=O)c2cccc3nsnc23)cc(OC)c1 | active: 44.7 µM | 
COc1cccc(Nc2nc(-c3cccc(N4C(=O)c5ccccc5C4=O)c3)cs2)c1 | inconclusive: 35.5 µM [inhibitor, partial curve] | 
CC(=O)c1c(C)n(S(=O)(=O)c2ccc(Cl)cc2)c2ccc(NS(=O)(=O)c3ccc(Cl)cc3)cc12 | inactive | 
O=C(Nc1nccs1)c1ccccn1 | active: 79.4 µM | 
Cc1cc(C)cc(NC(=O)Cn2nc(N3CCN(c4ccccc4)CC3)ccc2=O)c1 | inconclusive: 56.2 µM [inhibitor, partial curve] | 
CC(=O)NCCc1ccc(S(=O)(=O)Nc2ccc(NC(=O)c3ccc(F)cc3)cc2)cc1 | inactive | 
CCOc1nc(Nc2ccc(OC)c(Cl)c2)nc(OCC)n1 | inconclusive: 1.41 µM [inhibitor, partial curve] | 

SMILES | Potency | activity change, negative = inhibition
COc1ccc(-n2c(NC(=O)c3ccco3)c(C#N)c3nc4ccccc4nc32)cc1 | inactive | 
O=C(Nc1nc2n(n1)C(c1ccccc1)C=C(c1ccc(Cl)cc1)N2)c1ccco1 (stereo unspecified) | inconclusive: 89.1 µM [inhibitor, single point] | 
CSc1nnc(Cn2c(=O)sc3ccccc32)n1CCc1ccccc1 | inconclusive: 35.5 µM [inhibitor, full curve] | 
C/C(CC(=O)Nc1ccc(N(C)C)cc1)=N\NC(=O)Cc1csc(N)n1 | inconclusive: 70.8 µM [inhibitor, single point] | 
CC(NCC(=O)NC(=O)NCCC1=CCCCC1)c1ccc(S(N)(=O)=O)cc1 (stereo unspecified) | active: 22.4 µM | 
Cc1ccc(CN(Cc2ccco2)C(=O)COc2cccc(C)c2C)o1 | inconclusive: 79.4 µM [inhibitor, single point] | 
CC(C)C[C@@H](CN)NC(=O)c1nc[nH]c1C(=O)N[C@@H](Cc1ccccc1)C(=O)CNC[C@H](C)NC(=O)c1nc[nH]c1C(=O)N[C@@H](CC(C)C)C(=O)O | active: 56.2 µM | 
CCN1C(=O)/C(=C2\SC(=S)N(NC(=O)c3cccnc3)C2=O)c2ccccc21 | inconclusive: 50.1 µM [inhibitor, partial curve] | 
C/C=N\NC(=O)CNC(=O)CNC(=O)c1ccccc1 | inconclusive: 4.47 µM [inhibitor, single point] | 
COc1ccc(-c2cn3c(C)c(C(=O)N4CCc5ccccc5C4)sc3n2)cc1 | inconclusive: 28.2 µM [inhibitor, full curve] | 
Cc1cc(C(=O)COc2cc(F)ccc2[N+](=O)[O-])c(C)n1C1CC1 | inconclusive: 56.2 µM [inhibitor, partial curve] | 
COc1ccc(CC(=O)Nc2ccc(N3CCCC3)c(C)c2)cc1 | inconclusive: 56.2 µM [inhibitor, partial curve, poor fit] | 
Nc1c(C(=O)Nc2nccs2)sc2nc(-c3cccs3)cc(C(F)(F)F)c12 | inconclusive: 79.4 µM [inhibitor, partial curve] | 
CCOC(=O)C1=C(CC)Nc2ccccc2N/C1=N\S(=O)(=O)c1ccc2ccccc2c1 | inactive | 
COc1ccc2c(c1)CCc1sc(NC(=O)c3ccc(C)cc3)nc1-2 | inactive | 
COc1ccc(C2=C(Nc3ccc(C)cc3)c3ccccc3C2=O)cc1 | inconclusive: 10 µM [inhibitor, partial curve] | 
COc1ccc(CCC(C(O)C(F)(F)F)S(=O)c2ccccc2)cc1 (stereo unspecified) | active: 39.8 µM | 
COc1ccc(CCC(=O)NNC(=O)c2ccccn2)cc1OC | inactive | 
O=C(N/N=C(\Cc1ncc[nH]1)c1ccccc1)c1cccnc1 | active: 50.1 µM | 
CCOC(=O)C1CCCN(C(=O)COc2ccc(N(C)S(=O)(=O)c3ccc(F)cc3)cc2)C1 (stereo unspecified) | inactive | 
Cc1cc(/C=N/NC(=O)CC#N)c(C)n1-c1ccc([N+](=O)[O-])cc1 | inconclusive: 56.2 µM [inhibitor, partial curve] | 
CC[C@@H](C)C(NC(=O)OC(C)(C)C)c1cn([C@@H](Cc2cc3ccccc3[nH]2)C(=O)N2CCN(C(=O)OC(C)(C)C)CC2)nn1 (stereo partly specified) | inconclusive: 14.1 µM [inhibitor, full curve, poor fit] | 
COc1ccc(C2=Nc3ccc(OC(F)(F)F)cc3NC(c3cccnc3)=N2)cc1 | inconclusive: 100 µM [inhibitor, partial curve] | 
O=C(NNC(=O)c1ccccc1)C(=O)N1CCCCC1 | inconclusive: 39.8 µM [inhibitor, single point] | 

SMILES | Potency | activity change, negative = inhibition
CCOC(=O)c1c(NC(=O)CSc2nc3ccc(C)cc3[nH]2)sc2c1CC(C)(C)NC2(C)C | inconclusive: 63.1 µM [inhibitor, partial curve, poor fit] | 
Clc1ccccc1OCCn1ccnc1 | active: 4.47 µM | 
Cc1cc(Cl)c2oc(C(=O)N(C)CCc3cnn(C)c3)c(C)c2c1 | inconclusive: 39.8 µM [inhibitor, partial curve] | 
S=C(Nc1ccc(Cl)cc1)Nc1ccc2cn[nH]c2c1 | inactive | 
CCOc1ccc(C(Nc2cccnc2)c2cc(Cl)c3cccnc3c2O)cc1 (stereo unspecified) | active: 39.8 µM | 
COc1ccc(NC(=O)CSc2cn(CCNC(=O)c3c(F)cccc3F)c3ccccc23)cc1 | inactive | 
COc1ccc(N2C(=O)CC(NC3CC3)C2=O)cc1 (stereo unspecified) | inactive | 
CC(=O)NC(c1cccc([N+](=O)[O-])c1)c1ccc2cccnc2c1O (stereo unspecified) | active: 31.6 µM | 
COc1ccc(C(=O)N(Cc2ccc(N(C)C)cc2)CC2CCCO2)cc1 (stereo unspecified) | inconclusive: 50.1 µM [inhibitor, partial curve] | 
CC(C)CN(C(=O)C1COc2ccccc2O1)c1c(N)n(CC(C)C)c(=O)[nH]c1=O (stereo unspecified) | inactive | 
Cc1ccc(N=Nc2ccc(N)cc2C)c(S(N)(=O)=O)c1 | active: 8.91 µM | 
COc1ccc(-c2nc(C#N)c(NC(C)c3ccccc3)o2)cc1OC (stereo unspecified) | inconclusive: 56.2 µM [inhibitor, partial curve] | 
Cc1ccc(-c2cc(C(=O)N3CCN(c4ccc(O)cc4)CC3)c3ccccc3n2)cc1 | active: 28.2 µM | 
O=C(O)c1cccc2c1C(=O)c1ccc(-c3ccc(Cl)c(C(F)(F)F)c3)cc1S2(=O)=O | active: 79.4 µM | 
C=CCOc1ccc(/C(O)=C2/C(=O)C(=O)N(CCCN3CCOCC3)C2c2ccccc2)cc1 (stereo unspecified) | inconclusive: 3.55 µM [inhibitor, single point] | 
CCOC(=O)c1sc(=S)n(-c2cc(F)ccc2F)c1N | inconclusive: 89.1 µM [inhibitor, partial curve] | 
O=C(Nc1ccc2c(c1)CCC2)c1cnn2c1NC(c1ccco1)CC2C(F)(F)F (stereo unspecified) |  | inactive: 7.53% [at 11.4 µM]
CCc1cc(C(=O)N/N=C/c2ccc(O)cc2O)c2ccccc2n1 | active: 79.4 µM | 
CCN(Cc1ccccc1)C(c1cc2cc(C)ccc2[nH]c1=O)c1nnnn1CCOC (stereo unspecified) | inconclusive: 79.4 µM [inhibitor, single point] | 
CCCN1C/C(=C/c2ccc3c(c2)OCO3)C(=O)/C(=C/c2ccc3c(c2)OCO3)C1 | active: 22.4 µM | 
Oc1ccc2ccccc2c1C=Nc1ccccc1-c1nc2ccccc2[nH]1 | inconclusive: 31.6 µM [inhibitor, full curve] | 
CCNC(=O)NC(=O)CSc1ccc2ccccc2c1 | inconclusive: 22.4 µM [inhibitor, full curve] | 
COc1cc2c(cc1NC(=O)CCCN1C(=O)CCC1=O)oc1ccccc12 |  | inactive: -13.7% [at 11.4 µM]
